Variants at the floor of the assay are shown more often than the library holds them.
B1: TPR 5TU (parent)
chain: GGAUCUUCUCGAUCUAACAAAAAAGACAAAUCUGCCACAAAGCUUGAGAGCAUCUUCGGAUGCAGAGGCGGCAGCCUUCGGUGGCGCGAUAGCGCCAACGUUCUCAACUAUGACACGCAAAACGCGUGCUCCGUUGAAUGGAGUUUAUCAUG

Variants of: B1
Test: polymerase ribozyme fitness, log enrichment relative to wild type (log ratio); higher = more active; in vitro selection for triplet polymerase activity
Summary of the method: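 Libraries of mutants in each subunit of a heterodimeric triplet polymerase ribozyme were generated by PCR and transcribed. In triplicate, each went through one in vitro selection round: annealing with biotinylated primer, partner subunit and triplets; frozen incubation at −7 °C; gel excision of extended constructs; streptavidin-bead capture; RT-PCR. Fitness, taken from Illumina sequencing of input and output libraries, is the logarithm of a genotype's enrichment over wild-type enrichment, averaged across replicates with inverse-variance weights. The logarithm is base 2, and genotypes needed ≥10 input reads and ≥1 read per output to be kept.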

Variant	polymerase ribozyme fitness (log ratio)
C85U A89C	-1.13
C85U A89C C93U C149U	-3.26
C85U A89G G128U	≤ -4.2
C85U A89U C95A U151A	≤ -4.2
C85U A89U C105G	-1.55
C85U A89U C105U	0.517
C85U A89U G126U U145G	-3.94
C85U A91C G128A	≤ -4.2
C85U A91G G100U A122C	≤ -4.2
C85U A97U A115U	-2.7
C85U A98C G117C	0.631
C85U A98C G124C	-1.37
C85U A98U U139A	≤ -4.2
C85U A98U U151G	≤ -4.2
C85U A107C U144C	≤ -4.2
C85U A107G	≤ -4.2
C85U A107U C125A G126C	≤ -4.2
C85U A113G	-1.86
C85U A115U C118A A120G	-3.37
C85U A120G G124U G143C	-3.46
C85U A142C	-1.12
C85U A142G	-1.38
C85U A150G	-1.76
C85U A150U G152A	-0.481

Variant	polymerase ribozyme fitness (log ratio)
C85U C87U A137U	≤ -4.2
C85U C93G	-3.83
C85U C93G A113G C114U U127A C149G G152U	≤ -4.2
C85U C93U C131A	-2.94
C85U C93U U134G	-4.16
C85U C95A U102A G136U A142G	≤ -4.2
C85U C95G A119U	-1.89
C85U C95G G100C	≤ -4.2
C85U C95U	-1.72
C85U C96A C116G	-0.604
C85U C96U A113G G117U A142C	≤ -4.2
C85U C96U G126C A147G	≤ -4.2
C85U C99G G126A U135G	≤ -4.2
C85U C103G C105U U139A	≤ -4.2
C85U C116G U145A	-2.57
C85U C116U G141A	-2.95
C85U C118U	-0.662
C85U C118U A142U	-1.02
C85U C129U	-0.359
C85U C131U G143U	-2.54
C85U C149A	≤ -4.2
C85U G88A A98U	-3.79
C85U G88C C118A C131U	≤ -4.2
C85U G88U C105G C149U	≤ -4.2

Variant	polymerase ribozyme fitness (log ratio)
C85U G92U U139G	-1.29
C85U G94A G152C	-3.09
C85U G94U A97U	-0.116
C85U G100A C129U	≤ -4.2
C85U G124U	-0.801
C85U G133C	-1.69
C85U G136C	-3.29
C85U G136U G152C	≤ -4.2
C85U G140A	-3.24
C85U G141C	-0.765
C85U U90A A106G U135A G136A A137C	≤ -4.2
C85U U90C	-3.89
C85U U90C C96A A106U	≤ -4.2
C85U U102G C114U	≤ -4.2
C85U U104G	-0.929
C85U U127A G141A	≤ -4.2
C85U U127C U145A	-3.58
C85U U130G	-3.71
C85U U135G G141A	-3.54
C85U U139A	≤ -4.2
C85U U145C	-0.732
C85U U146A G152U	-3.06
C85U U148C	-2.19
G86A A89G C149U	≤ -4.2

Variant	polymerase ribozyme fitness (log ratio)
G86A A89U C105U U134A	-3.77
G86A A110U A138G	≤ -4.2
G86A A121U	-0.51
G86A A122G	-1.11
G86A A122U	-1.33
G86A A142C	-2.27
G86A C87A A89G C114U	≤ -4.2
G86A C103G C123U	-3.36
G86A C103U A107G	≤ -4.2
G86A C114U	-2.15
G86A C123U G133U	≤ -4.2
G86A G88U G117U	≤ -4.2
G86A G94A C131G	≤ -4.2
G86A G100A	-3.89
G86A G141U	-1.07
G86A U90A	-3.67
G86A U90G	≤ -4.2
G86A U101G	-0.828
G86A U104G	-2.29
G86A U139G	-1.36
G86A U145G U148A	≤ -4.2
G86A U148C	-1.5
G86C	-2.55
G86C A98C	-1

Variant	polymerase ribozyme fitness (log ratio)
G86C A98G U111G	≤ -4.2
G86C A138G	≤ -4.2
G86C C108U	≤ -4.2
G86C C114U	-3.9
G86C C125A G141U	≤ -4.2
G86C C131U	-2.55
G86C G128U	≤ -4.2
G86C G140U	≤ -4.2
G86C U101A U104G A107C G112C	≤ -4.2
G86C U101G G124U G152A	-4.15
G86C U151G	≤ -4.2
G86U	-1.62
G86U A89G U145A	-3.28
G86U A91C C99G U109G	≤ -4.2
G86U A115C G143U	≤ -4.2
G86U A120G C129A U145G	-4.13
G86U C87A	≤ -4.2
G86U C87U	≤ -4.2
G86U C93G	-1.28
G86U C93G A106G C132U U148A	-3.05
G86U C118U A119G	-4.19
G86U C118U C125U	-4.01
G86U C123G	-1.55
G86U G92U	-1.95

Variant	polymerase ribozyme fitness (log ratio)
G86U G124A U148A	-3.78
G86U G133A	≤ -4.2
G86U G141A U146C	-1.62
G86U U90C A110G	≤ -4.2
G86U U90G	≤ -4.2
G86U U104A G117C	-2.37
G86U U104G C116A	-2.52
G86U U111A	≤ -4.2
C87A A89G C116U C125U	≤ -4.2
C87A A91U	≤ -4.2
C87A A91U U145G	≤ -4.2
C87A A97C	≤ -4.2
C87A A97G A142C	≤ -4.2
C87A A97U	≤ -4.2
C87A A98G	≤ -4.2
C87A A98G A115C	≤ -4.2
C87A A98G G126A U145A	≤ -4.2
C87A A107G	≤ -4.2
C87A A107G A115U U135C A142C	≤ -4.2
C87A A119U A147C	-4.05
C87A A121U C125A	≤ -4.2
C87A A138C	≤ -4.2
C87A A150G	≤ -4.2
C87A C93G C108U	≤ -4.2

Variant	polymerase ribozyme fitness (log ratio)
C87A C93U	≤ -4.2
C87A C93U A150U	≤ -4.2
C87A C93U C103U	≤ -4.2
C87A C95U	≤ -4.2
C87A C96A C114G G136U	≤ -4.2
C87A C96A C131A	≤ -4.2
C87A C96A G141A	≤ -4.2
C87A C99A U139A	≤ -4.2
C87A C103U	≤ -4.2
C87A C108G	≤ -4.2
C87A C116U C125U U134G U144A	≤ -4.2
C87A C118A G128U U148A	≤ -4.2
C87A C125U	-4.14
C87A C132U	≤ -4.2
C87A G88A	≤ -4.2
C87A G88C C116G U130A	≤ -4.2
C87A G88U U111C U139C C149U	≤ -4.2
C87A G92A	≤ -4.2
C87A G92C U101C C114G G133U	≤ -4.2
C87A G92U	0.159
C87A G94A U104A	≤ -4.2
C87A G100A U134A	≤ -4.2
C87A G100U	≤ -4.2
